Assay results taken from PubChem BioAssay AID485344 (National Center for Advancing Translational Sciences (NCATS), 2010).
Values joined by “and” are separate entries in the source; they are usually repeats but may differ in a detail not shown here. Identical values can stand only once. The whole screen tested about 340,000 compounds, of which about 6,900 (2%) were called active. No stated cut-off is given here; in the data, active means inhibition above about 30%; inactive means below that, where a call was filed. The list shows a part of the results, in another mix than the full data. The source gives no active or inactive call for entries shown without one.
Further: 0% is about no effect.

These molecules were tested against D(2) dopamine receptor (Homo sapiens) (UniProt P14416) (assay: HTS Assay for Allosteric Antagonists of the Human D2 Dopamine Receptor: Primary Screen for Antagonists). Conditions: HEK293 TREx D2 cells, calcium flux, dopamine EC80; at 10 µM; stronger effect = higher value.
Sequence of UniProt P14416 (P14416 whole entry, looked up): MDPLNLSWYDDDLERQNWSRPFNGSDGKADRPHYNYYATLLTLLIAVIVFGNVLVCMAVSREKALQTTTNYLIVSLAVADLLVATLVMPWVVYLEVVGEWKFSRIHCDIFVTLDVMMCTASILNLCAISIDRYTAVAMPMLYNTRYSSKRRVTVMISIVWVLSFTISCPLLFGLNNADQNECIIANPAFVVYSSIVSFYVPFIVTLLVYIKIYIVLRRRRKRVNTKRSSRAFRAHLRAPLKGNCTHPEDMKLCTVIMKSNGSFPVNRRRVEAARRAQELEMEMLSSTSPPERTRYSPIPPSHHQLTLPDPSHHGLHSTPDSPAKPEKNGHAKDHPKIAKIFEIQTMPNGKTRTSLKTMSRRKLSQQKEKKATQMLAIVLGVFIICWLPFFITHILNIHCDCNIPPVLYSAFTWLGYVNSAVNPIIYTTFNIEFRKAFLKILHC
How it was run: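 Read-out: kinetic calcium fluorescence (1 cycle/s) in inducible HEK293 T-REx D2 cells after an EC80 dopamine addition that followed 180 s compound preincubation. Loss of the dopamine response indicates antagonism.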
For `O=C(Nc1c(O)c2ccccc2oc1=O)c1ccccc1Cl`, the inhibition was 11.7%.
With `CCOc1ccc(CNC(=O)CN2C(=O)CSc3c2c(C)nn3-c2ccccc2)cc1` the inhibition was -1.91%.
`COCCNC(=O)c1ccc(NC(=O)N2CCCCc3ccccc32)cc1` was tested, and the inhibition was 4.58%.
Work on `O=C(C1CC1)N1CCc2cc(Br)cc(S(=O)(=O)Nc3ccc(C(F)(F)F)cc3)c21` yielded an inhibition of 3.91%.
For `CCOc1ccc(-n2nc3ccc(NC(=O)COc4ccccc4C)cc3n2)cc1`, the inhibition was -2.71%.
`COc1ccc(NC(=O)C(=O)NCCc2csc3nc(-c4ccccc4C)nn23)cc1` was tested, and the inhibition was 15.3%.
Molecule `CCCC(=O)Nc1nnc(S(=O)(=O)N(C)c2ccccc2)s1` has an inhibition of 0.0664%.
`COc1ccc(S(=O)(=O)N(CCc2ccccc2)CC(=O)NCc2ccc(C)cc2)cc1` gave an inhibition of 4.25%.
`COC(=O)c1ccc(NC(=O)c2cc3cc4ccc(OC)c(Cl)c4nc3s2)cc1` gave an inhibition of -2.77%.
`O=C(NC1CC(=O)N(c2ccc(F)cc2)C1)C(c1ccccc1)c1ccccc1` (stereo unspecified) gave an inhibition of 2.17%.
With `Cn1cc(C(=O)N2CCN(c3ccccc3)CC2)c(=O)c2cc(S(=O)(=O)N3CCCC3)ccc21` the inhibition was 2.3%.
For `N#Cc1cnn(Cc2ccccc2)c1/N=C/N1CCOCC1`, the inhibition was active: 34.2%.
Work on `Cc1ccc(Cn2c(Cc3ccccc3)nc3ccccc32)cc1` yielded an inhibition of -13.1%.
With `Brc1cnc(N2CCCC2)nc1N1CCOCC1` the inhibition was active: 34.9%.
For `O=C(CCNC(=O)c1ccc(Br)cc1)Nc1cccc(S(=O)(=O)N2CCCC2)c1`, the inhibition was active: 38.1%.
`CCOc1ccc(CN2C(=O)c3ccccc3Sc3ccc(C(=O)NC4CCC(C)CC4)cc32)cc1` (stereo unspecified) gave an inhibition of 27.4%.
In the case of `CCOC(=O)c1ccccc1NC(=O)CCc1c(C)nc2c(c1C)c(=O)n(C)c(=O)n2C`, the inhibition is reported as 16%.
`CCOc1ccccc1NC(=O)N1CCC(N2CCN(Cc3ccccc3)C(=O)C2=O)CC1` gave an inhibition of -13.9%.
Molecule `CC(Oc1ccccc1F)C(=O)N1CCC(c2nc3ccccc3o2)CC1` (stereo unspecified) has an inhibition of 8.48%.
With `O=c1c2ccccc2nc(-c2ccc(Cl)cc2)n1CCCCOc1ccc(F)cc1` the inhibition was -10.3%.
With `COc1ccccc1NC(=O)C1=C(C)Nc2nc(SCc3ccccc3)nn2C1c1cccs1` (stereo unspecified) the inhibition was -11%.
`Cc1ccc(NC(=O)CN2C(=O)c3ccccc3Sc3ncccc32)c(C)c1` showed an inhibition of -1.43%.
With `O=C(NCCc1ccc(Cl)cc1)c1ccc2c(c1)N(Cc1ccccc1)C(=O)CS2` the inhibition was -0.979%.
For `O=S(=O)(c1ccccc1)c1nc(-c2ccccc2)oc1NCCCN1CCOCC1`, the inhibition was active: 47.7%.
For `COc1ccccc1N1CCN(CC(O)COc2cccc3ccccc23)CC1` (stereo unspecified), the inhibition was active: 80.7% and active: 96.3% and active: 86.3%.
Work on `O=C(NCCCc1ccccc1)c1ccc2c(c1)sc1nc(-c3ccc(F)cc3)cn12` yielded an inhibition of -12.3%.
With `Cc1ccccc1CN1C(=O)c2ccccc2Sc2ccc(C(=O)NCCCN3CCOCC3)cc21` the inhibition was -7.17%.
In the case of `O=C(C1CC1)N1CCN=C1SCc1ccccc1Cl`, the inhibition is reported as active: 35.4%.
Work on `Cc1ccc(Sc2c(C)nn(-c3ccccc3)c2OC(=O)CC(C)C)cc1` yielded an inhibition of 17.4%.
With `CCOc1ccc(CC(=O)NCc2ccc3c(c2)CCN3C(=O)c2ccc(F)cc2)cc1OCC` the inhibition was 17.8%.
For `CC(=O)c1ccc(S(=O)(=O)Nc2cccc(-c3ccc(N4CCCC4)nn3)c2)cc1`, the inhibition was -20.2%.
`Cc1ccc(CNC(=O)CCCn2nc(C)n3c(cc4sccc43)c2=O)cc1` was tested, and the inhibition was -0.735%.
`COc1cccc(C(=O)c2cn(CC(=O)Nc3ccc4c(c3)OCCO4)c3nc(C)ccc3c2=O)c1` was tested, and the inhibition was -11.6%.
`CCC(=O)N1CCc2cc(S(=O)(=O)NC(CC(C)C)C(=O)NCc3cccc(OC)c3)ccc21` (stereo unspecified) was tested, and the inhibition was -0.506%.
For `O=C(c1ccc(Br)s1)N1CCN(Cc2ccc3c(c2)OCO3)CC1`, the inhibition was active: 78.4%.
For `COc1cc(NC(=O)C2CCN(S(=O)(=O)c3c(C)noc3/C=C/c3c(C)cc(C)cc3C)CC2)cc(OC)c1`, the inhibition was -11.9%.
`Cc1cccc(C)c1NC(=O)c1cc2sccc2n1Cc1ccc(F)cc1` gave an inhibition of 2.61%.
In the case of `CCN(Cc1ccccc1)S(=O)(=O)c1ccc(F)c(C(=O)Nc2ccc(C(C)C)cc2)c1`, the inhibition is reported as 2.94%.
`CSc1nc(NCc2ccco2)c2ccccc2n1` was tested, and the inhibition was active: 30.7%.
`Cc1ccc(CNC(=O)c2cn(C)c3ccc(S(=O)(=O)N4CCC(C)CC4)cc3c2=O)cc1` was tested, and the inhibition was 9.16%.
`COC(=O)c1ccc(C)c(NC(=O)c2ccc(CN3CCc4ccccc4C3)cc2)c1` was tested, and the inhibition was active: 77.9%.
`CCCCN(CC)C(=O)Cn1cc2c(n1)-c1c(oc(C(=O)N3CCCC3)c1C)CC2` showed an inhibition of 6.24%.
`CC(=O)C(Sc1nc(-c2ccccc2Cl)nc2c1c(=O)n(C)c(=O)n2C)C(=O)N(C)C` (stereo unspecified) gave an inhibition of 9.23%.
`CCOC(=O)C1CCCN(S(=O)(=O)c2cc(Br)cc3c2N(C(=O)CC)CC3)C1` (stereo unspecified) gave an inhibition of 6.15%.
For `CC1CCN(CCCNC(=O)COc2cc(=O)n(C)c3ccccc23)CC1`, the inhibition was active: 34.1%.
For `Cc1ccc(COC(=O)c2ccc(-c3nnn(Cc4ccc(C)cc4)n3)cc2)cc1`, the inhibition was 0.629%.
